Data as given in a collection of fitness landscapes (doi:10.1126/science.1257360).
The list shows a part of the results.

B1: PhoQ; a variant is named by its letters at X, in order, P23837 (parent)
chain: MKKLLRLFFPLSLRVRFLLATAAVVLVLSLAYGMVALIGYSVSFDKTTFRLLRGESNLFYTLAKWENNKLHVELPENIDKQSPTMTLIYDENGQLLWAQRDVPWLMKMIQPDWLKSNGFHEIEADVNDTSLLLSGDHSIQQQLQEVREDDDDAEMTHSVAVNVYPATSRMPKLTIVVVDTIPVELKSSYMVWSWFIYVLSANLLLVIPLLWVAAWWSLRPIEALAKEVRELEEHNRELLNPATTRELTSLVRNLNRLLKSERERYDKYRTTLTDLTHSLKTPLXXLQXXLRSLRSEKMSVSDAEPVMLEQISRISQQIGYYLHRASMRGGTLLSRELHPVAPLLDNLTSALNKVYQRKGVNISLDISPEISFVGEQNDFVEVMGNVLDNACKYCLEFVEISARQTDEHLYIVVEDDGPGIPLSKREVIFDRGQRVDTLRPGQGVGLAVAREITEQYEGKIVAGESMLGGARMEVIFGRQHSAPKDE

Variants of: B1
Assay: enrichment ratio after two sorts for PhoP signalling (ratio (wild type AVST 3.29)); higher = more functional
Conditions: with PhoP (E. coli)

Point of comparison: VSCM, enrichment ratio 13.1. Against it:
- QRGK — lower, ≤ 0.25
- ETTA — lower, ≤ 0.25
- KLNA — lower, ≤ 0.25
- FMEL — lower, ≤ 0.25
- PTTH — lower, 1.43
- NMHL — lower, ≤ 0.25
- PNHE — lower, ≤ 0.25
- RTSH — lower, ≤ 0.25
- DDSY — lower, ≤ 0.25
- SDHL — lower, ≤ 0.25
- NLTP — lower, ≤ 0.25
- MGHT — lower, ≤ 0.25
- NFPQ — lower, ≤ 0.25
- TPHS — lower, ≤ 0.25
- MAER — lower, ≤ 0.25
- VMPY — lower, ≤ 0.25
- IPVQ — lower, ≤ 0.25
- DRLL — lower, ≤ 0.25
- GRKG — lower, ≤ 0.25
- TMCV — higher, 13.2
- RKQY — lower, ≤ 0.25
- QGNW — lower, ≤ 0.25
- YAWY — lower, ≤ 0.25
- RNHP — lower, ≤ 0.25
- FLRP — lower, ≤ 0.25
- AFHC — lower, ≤ 0.25
- FYYD — lower, ≤ 0.25
- DESL — lower, ≤ 0.25
- QHWV — lower, ≤ 0.25
- KTMG — lower, ≤ 0.25
- HAGH — lower, ≤ 0.25
- YCIK — lower, ≤ 0.25
- SVVE — lower, ≤ 0.25
- NYKQ — lower, ≤ 0.25
- QNMG — lower, ≤ 0.25
- RKGF — lower, ≤ 0.25
- IMDP — lower, ≤ 0.25
- VQHH — lower, ≤ 0.25
- ISMF — lower, ≤ 0.25
- YISA — lower, 0.687
- EGCD — lower, ≤ 0.25
- TGYI — lower, 8.06
- NMNN — lower, ≤ 0.25
- SRHG — lower, ≤ 0.25
- MLFC — lower, ≤ 0.25
- PQNG — lower, ≤ 0.25
- YTPR — lower, ≤ 0.25
- MDHH — lower, ≤ 0.25
- WCYL — lower, ≤ 0.25
- YCCY — lower, ≤ 0.25
- YCIS — lower, 0.352
- DSSG — lower, ≤ 0.25
- RLWG — lower, ≤ 0.25
- WQAH — lower, ≤ 0.25
- WYDG — lower, ≤ 0.25
- EHLY — lower, ≤ 0.25
- PSVY — lower, ≤ 0.25
- GSLY — lower, 7.32
- HICE — lower, ≤ 0.25
- FDSF — lower, ≤ 0.25
- EGGF — lower, ≤ 0.25
- QGQM — lower, ≤ 0.25
- GKMP — lower, ≤ 0.25
- FKRA — lower, ≤ 0.25
- RFNV — lower, ≤ 0.25
- ETMS — lower, ≤ 0.25
- YFIV — lower, ≤ 0.25
- LNHL — lower, ≤ 0.25
- FGNH — lower, ≤ 0.25
- TKEP — lower, ≤ 0.25
- VPDT — lower, ≤ 0.25
- APMD — lower, ≤ 0.25
- DLGP — lower, ≤ 0.25
- SLMA — lower, 0.45
- GGVK — lower, ≤ 0.25
- YGVE — lower, ≤ 0.25
- HAWH — lower, ≤ 0.25
- RFNY — lower, ≤ 0.25
- ALEF — lower, ≤ 0.25
- HEKF — lower, ≤ 0.25
- MHRI — lower, ≤ 0.25
- QVSY — lower, ≤ 0.25
- TKDM — lower, ≤ 0.25
- FYSG — lower, ≤ 0.25
- NPAH — lower, ≤ 0.25
- SEYE — lower, ≤ 0.25
- HTPH — lower, ≤ 0.25
- LGGL — lower, ≤ 0.25
- MFTD — lower, ≤ 0.25
- HGGN — lower, ≤ 0.25
- SKFN — lower, ≤ 0.25
- FHQE — lower, ≤ 0.25
- TKFG — lower, ≤ 0.25
- QCWC — lower, ≤ 0.25
- MNAF — lower, 1.87
- NANG — lower, ≤ 0.25
- YAMG — lower, ≤ 0.25
- QDQT — lower, ≤ 0.25
- EAQW — lower, ≤ 0.25
- TLVW — lower, ≤ 0.25
- PSCL — lower, ≤ 0.25
- MLKI — lower, ≤ 0.25
- ILDR — lower, ≤ 0.25
- APMY — lower, ≤ 0.25
- LIEL — lower, ≤ 0.25
- MVPR — lower, ≤ 0.25
- VDYE — lower, ≤ 0.25
- MKIS — lower, ≤ 0.25
- TAKN — lower, ≤ 0.25
- TFQI — lower, ≤ 0.25
- NQAW — lower, ≤ 0.25
- FCSF — lower, ≤ 0.25
- YEYN — lower, ≤ 0.25
- RCFW — lower, ≤ 0.25
- NAKM — lower, ≤ 0.25
- GVYP — lower, ≤ 0.25
- SMLH — lower, 2.83
- EVVG — lower, ≤ 0.25
- LCCF — lower, ≤ 0.25
- KQGS — lower, ≤ 0.25
- KATY — lower, ≤ 0.25
- ASNH — lower, 2.11
- GNLE — lower, 1.64
- PQHQ — lower, ≤ 0.25
- MTKR — lower, ≤ 0.25
- MHVD — lower, ≤ 0.25
- MCNN — lower, ≤ 0.25
- RQSH — lower, ≤ 0.25
- SWNP — lower, ≤ 0.25
- ATSK — lower, 4.37
- KFWP — lower, ≤ 0.25
- LISM — lower, ≤ 0.25
- FMTM — lower, ≤ 0.25
- WLCQ — lower, ≤ 0.25
- PSVH — lower, ≤ 0.25
- YGKM — lower, ≤ 0.25
- PTEC — lower, ≤ 0.25
- DSFK — lower, ≤ 0.25
- GMGR — lower, 3.01
- RMPL — lower, ≤ 0.25
- DSNG — lower, ≤ 0.25
- SQIH — lower, 12.4
- YLVL — lower, ≤ 0.25
- PLHS — lower, ≤ 0.25
- FFVY — lower, ≤ 0.25
- VHIF — lower, ≤ 0.25
- ISRP — lower, ≤ 0.25
- LFDE — lower, ≤ 0.25
- PCKG — lower, ≤ 0.25
- REPP — lower, ≤ 0.25
- RGDL — lower, ≤ 0.25
- DFHK — lower, ≤ 0.25
- PTSP — lower, ≤ 0.25
- TQFI — lower, 6.41
- PAPV — lower, ≤ 0.25
- QDCN — lower, ≤ 0.25
- FMPH — lower, ≤ 0.25
- MNQN — lower, ≤ 0.25
- NLVP — lower, ≤ 0.25
- ARCH — lower, 6.1
- DHNH — lower, ≤ 0.25
- YIPP — lower, ≤ 0.25
- WAHN — lower, ≤ 0.25
- MQDH — lower, ≤ 0.25
- VASI — lower, 0.684
- AVLH — lower, 1.54
- VCVD — lower, ≤ 0.25
- DATP — lower, ≤ 0.25
- LYNT — lower, ≤ 0.25
- VADQ — lower, ≤ 0.25
- MPFR — lower, ≤ 0.25
- YTNS — lower, ≤ 0.25
- THMQ — lower, 9.12
- GYFV — lower, ≤ 0.25
- NCPS — lower, ≤ 0.25
- ICVR — lower, ≤ 0.25
- RYQA — lower, ≤ 0.25
- DQGL — lower, ≤ 0.25
- MNVR — lower, ≤ 0.25
- ETHT — lower, ≤ 0.25
- TTLY — lower, 3.21
- GMFW — lower, ≤ 0.25
- RGFF — lower, ≤ 0.25
- EYDD — lower, ≤ 0.25
- RQVD — lower, ≤ 0.25
- IKMV — lower, ≤ 0.25
- FFSE — lower, ≤ 0.25
- MCYA — lower, ≤ 0.25
- MRYQ — lower, ≤ 0.25
- GLSA — lower, ≤ 0.25
- PVNV — lower, ≤ 0.25
- GAMS — lower, ≤ 0.25
- ATGE — lower, 4.75
- EYFQ — lower, ≤ 0.25
- LFLH — lower, ≤ 0.25
- ATMY — lower, 7.37
- TCFP — lower, ≤ 0.25
- FDPA — lower, ≤ 0.25
- YTDQ — lower, ≤ 0.25
- NWLD — lower, ≤ 0.25
- DADF — lower, ≤ 0.25
- LWGH — lower, ≤ 0.25
- EYGG — lower, ≤ 0.25
- PWCE — lower, ≤ 0.25
- QFFA — lower, ≤ 0.25
- RCAQ — lower, ≤ 0.25
- LAYE — lower, ≤ 0.25
- ACIG — lower, 12.3
- VYTL — lower, ≤ 0.25
- NCML — lower, ≤ 0.25
- VAYC — lower, ≤ 0.25
- RQII — lower, ≤ 0.25
- FFMQ — lower, ≤ 0.25
- SLYR — lower, ≤ 0.25
- YCQK — lower, ≤ 0.25
- QATY — lower, ≤ 0.25
- DHIN — lower, ≤ 0.25
- YFGT — lower, ≤ 0.25
- GLEC — lower, ≤ 0.25
- VHDK — lower, ≤ 0.25
- MQST — lower, ≤ 0.25
- MIQV — lower, ≤ 0.25
- WQVH — lower, ≤ 0.25
- ISRH — lower, 0.443
- GFVE — lower, ≤ 0.25
- MPMP — lower, ≤ 0.25
- WYGI — lower, ≤ 0.25
- WYFW — lower, ≤ 0.25
- MDGK — lower, ≤ 0.25
- FKRQ — lower, ≤ 0.25
- GGFV — lower, ≤ 0.25
- DDMH — lower, ≤ 0.25
- LIML — lower, ≤ 0.25
- KGFQ — lower, ≤ 0.25
- KIIS — lower, ≤ 0.25
- VGRT — lower, ≤ 0.25
- HRWL — lower, ≤ 0.25
- ISTW — lower, ≤ 0.25
- WVHI — lower, ≤ 0.25
- GDSH — lower, ≤ 0.25
- QDVM — lower, ≤ 0.25
- AHLA — lower, 1.43
- WFRK — lower, ≤ 0.25
- EYFS — lower, ≤ 0.25
- PFDA — lower, ≤ 0.25
- FPTS — lower, ≤ 0.25
- SIRW — lower, ≤ 0.25
- EPMH — lower, ≤ 0.25
- SCEI — lower, ≤ 0.25
- MFSF — lower, ≤ 0.25
- SQYC — lower, ≤ 0.25
- ATAH — lower, 4.05
- MTLY — lower, ≤ 0.25
- RCGA — lower, ≤ 0.25
- YITA — lower, ≤ 0.25
- NGEH — lower, ≤ 0.25
- ILVC — lower, ≤ 0.25
- GTEP — lower, ≤ 0.25
- PQQM — lower, ≤ 0.25
- NTVD — lower, ≤ 0.25
- WPME — lower, ≤ 0.25
- WSKQ — lower, ≤ 0.25
- MTCP — lower, ≤ 0.25
- VTVI — lower, ≤ 0.25
- TARR — lower, 0.314
- GESW — lower, ≤ 0.25
- GRHS — lower, ≤ 0.25
- TYEL — lower, ≤ 0.25
- TPRE — lower, ≤ 0.25
- LAFH — lower, 0.766
- YKSC — lower, ≤ 0.25
- DSDM — lower, ≤ 0.25
- PQMG — lower, ≤ 0.25
- AFKS — lower, ≤ 0.25
- QHVK — lower, ≤ 0.25
- IPQL — lower, ≤ 0.25
- NKEM — lower, ≤ 0.25
- IRVW — lower, ≤ 0.25
- VGKH — lower, ≤ 0.25
- GQSD — lower, ≤ 0.25
- IRHQ — lower, ≤ 0.25
- WFAF — lower, ≤ 0.25
- VAAN — lower, ≤ 0.25
- RSMD — lower, ≤ 0.25
- FWGR — lower, ≤ 0.25
- PCQM — lower, ≤ 0.25
- WFDL — lower, ≤ 0.25
- SKQV — lower, ≤ 0.25
- GSKE — lower, ≤ 0.25
- VARC — lower, ≤ 0.25
- RASK — lower, ≤ 0.25
- LDFC — lower, ≤ 0.25
- DHQP — lower, ≤ 0.25
- GWCG — lower, ≤ 0.25
- IMHD — lower, ≤ 0.25
- MCRP — lower, ≤ 0.25
- KDLD — lower, ≤ 0.25
- LWSV — lower, ≤ 0.25
- PVKK — lower, ≤ 0.25
- MPIQ — lower, ≤ 0.25
- VQLL — lower, 3.45
- YPKT — lower, ≤ 0.25
- NHQG — lower, ≤ 0.25
- ACRE — lower, ≤ 0.25
- EHYV — lower, ≤ 0.25
